Data from PMC4336329 (PLoS ONE, 2015).
About 14,000 (4.5%) of roughly 310,000 compounds showed an effect of 50% or more. The effect is printed as a negative number. Some of the results follow.

Target: human ether-à-go-go-related gene (hERG) potassium channel (human, UniProt Q12809)
Test: primary screen, population patch clamp on CHO cells stably expressing hERG
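Note: peak tail current of the secondary pulse compared with the same well before compound.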

Sequence of human ether-à-go-go-related gene (hERG) potassium channel (Q12809 whole entry, looked up): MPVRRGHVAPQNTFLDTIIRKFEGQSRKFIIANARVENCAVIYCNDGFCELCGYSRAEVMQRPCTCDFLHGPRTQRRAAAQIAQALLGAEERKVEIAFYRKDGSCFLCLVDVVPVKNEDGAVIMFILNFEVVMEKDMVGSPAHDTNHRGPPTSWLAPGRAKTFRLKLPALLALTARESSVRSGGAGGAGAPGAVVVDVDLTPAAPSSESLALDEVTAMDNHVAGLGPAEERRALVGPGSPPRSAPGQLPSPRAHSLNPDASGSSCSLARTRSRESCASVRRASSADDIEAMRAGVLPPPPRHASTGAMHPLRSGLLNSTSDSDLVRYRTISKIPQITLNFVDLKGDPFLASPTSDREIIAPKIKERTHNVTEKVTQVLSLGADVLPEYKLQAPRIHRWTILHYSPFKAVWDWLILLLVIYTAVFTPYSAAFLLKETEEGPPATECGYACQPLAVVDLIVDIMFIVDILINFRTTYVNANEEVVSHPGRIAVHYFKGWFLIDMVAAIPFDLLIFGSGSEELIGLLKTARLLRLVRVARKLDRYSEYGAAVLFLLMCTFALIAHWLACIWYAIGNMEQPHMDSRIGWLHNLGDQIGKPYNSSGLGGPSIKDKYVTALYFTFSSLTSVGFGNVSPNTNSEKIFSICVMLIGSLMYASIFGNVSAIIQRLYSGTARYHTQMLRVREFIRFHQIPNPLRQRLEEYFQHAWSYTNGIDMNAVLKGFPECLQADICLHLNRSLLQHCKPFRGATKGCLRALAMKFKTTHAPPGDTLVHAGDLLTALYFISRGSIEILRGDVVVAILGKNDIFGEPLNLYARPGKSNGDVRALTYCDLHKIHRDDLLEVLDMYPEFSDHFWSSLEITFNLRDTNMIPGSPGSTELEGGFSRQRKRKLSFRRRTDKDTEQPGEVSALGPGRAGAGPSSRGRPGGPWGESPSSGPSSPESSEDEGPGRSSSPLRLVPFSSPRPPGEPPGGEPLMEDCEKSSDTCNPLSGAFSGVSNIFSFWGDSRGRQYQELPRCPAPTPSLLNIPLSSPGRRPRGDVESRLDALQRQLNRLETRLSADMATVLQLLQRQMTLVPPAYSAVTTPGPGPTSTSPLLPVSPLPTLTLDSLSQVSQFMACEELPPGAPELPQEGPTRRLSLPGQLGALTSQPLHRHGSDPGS

Structure (SMILES)	hERG current change (%, negative = inhibition) at 10uM [%]
CCc1ccc(OCCCC(=O)Nc2ccc(N3CCOCC3)cc2)cc1	21.8
Cn1nc([N+](=O)[O-])nc1Sc1nnnn1-c1cccc(C(=O)O)c1	13.3
Cc1[nH]c2ccccc2c1C(c1ccccn1)N1CCC(C(N)=O)CC1 (centres unmarked)	-11.4
C/C(=N\OCC(=O)OCC(=O)NC(=O)c1ccc(OC(F)F)cc1)c1ccc2c(c1)OCO2	-37.5
CC(C(=O)N1CCOCC1)N1C(=O)C2C3CC(C(Br)C3Br)C2C1=O (centres unmarked)	-1.46
Cn1c(C(=O)N2CCCC(C(=O)NCCCc3ccccc3)C2)cc2sccc21 (centres unmarked)	-46.4
CCOc1cc(S(=O)(=O)NCCc2cccc(C)c2)c(OCC)cc1-n1cnnn1	-22.4
CCCn1c(N)c(Sc2ccccc2[N+](=O)[O-])c(=O)n(CCC)c1=O	5.29
O=C(Nc1ccc(F)cc1)N(Cc1ccco1)Cc1cc2cc3c(cc2[nH]c1=O)OCO3	6.08
CCCCC#Cc1cncc(C(=O)N/N=C/c2ccccc2)c1	11.8
COc1ccccc1CNC(=O)COc1ccc([N+](=O)[O-])cc1	-32.5
Clc1ccc(CNc2ccccn2)cc1	-12.7
Cc1cc(/C=N/n2cnnc2)c(C)n1-c1cc(Cl)ccc1Cl	-32
O=C(CCC1CCCCC1=O)c1ccccc1 (centres unmarked)	-1.23
O=C(NCCCN1CCOCC1)C1Nc2ccc(OC(F)(F)F)cc2C2C=CCC12 (centres unmarked)	-18.9
Cc1cccc(OCc2nnc(SCC(=O)OC3CCCCC3)o2)c1	14.1
O=C1CC(=C(c2ccccc2)c2ccccc2)C(=O)N1CCCCN1CCN(c2ccccc2)CC1	-63.3
CC12CCC(C(=O)Nc3cccc4ccccc34)(C1Br)C2(C)C (centres unmarked)	15.3
O=S(=O)(NNc1nccc(C(F)(F)F)n1)c1cccc(Cl)c1Cl	26.4
CCCn1c(CC)nc([N+](=O)[O-])c1S(=O)(=O)c1ccccc1	-23.8
CC1=C(NCCc2ccccc2)CCC1=O	11.5
O=C(NCc1cccnc1)Nc1cccc(Cl)c1Cl	0.584

Structure (SMILES)	hERG current change (%, negative = inhibition) at 10uM [%]
c1ccc(C2=NCCCN2)cc1	-7.18
COc1ccc(CCNC2CC(C)N(C)CC2C)cc1OC.Cl (centres unmarked)	3.84
CCOC(=O)c1sc(C)c2c1NC(C)(c1cccc3ccccc13)NC2=O (centres unmarked)	11
Cc1ccc(-n2ncc3c(SCC(=O)NNC(=O)C(C)C)ncnc32)cc1	30.5
c1ccc(N2CCN(Cc3cn4ccccc4n3)CC2)cc1	10.8
CCOC(=O)N1CCN(C(=O)c2ccc(CN(c3ccccc3)S(C)(=O)=O)cc2)CC1	6.55
O=C(C[n+]1ccc(C(=O)N/N=C/c2ccc(Br)cc2)cc1)c1ccccc1.[Br-]	-63.6
CC(C)(C)c1ccc(S(=O)(=O)N2CCCCC2C(=O)NCc2ccccn2)cc1 (centres unmarked)	-23.6
O=CN1CCCN(C(=O)CC2C(=O)NCCN2Cc2cccc(Oc3ccccc3)c2)CC1 (centres unmarked)	-15.7
CN(C)c1ccc(Nc2cc(Cl)ncn2)cc1	1.65
O=c1cc(CO)oc(CN2CCN(c3ccccc3F)CC2)c1O	6.86
COC(=O)c1c(NC(=O)CCc2ccc(C)o2)sc(C)c1C	-5.99
CCCCN(C)CCNC(=O)c1cc(-c2cccnc2)nc2ccc(S(=O)(=O)N3CCC(C)CC3)cc12	-35.5
COc1ccc(CC(NC(C)=O)C(=O)N2CCN(C(=O)N(C(C)C)C(C)C)CC2)cc1 (centres unmarked)	0.101
Cn1c2ccccc2c(=O)c2c(=O)n(Cc3ccco3)c(-c3ccc(F)cc3)nc21	-15.1
CCOc1ccc(NC(=O)CN(C)CC(=O)Nc2ccc(Br)cc2F)cc1OCC	-17.6
C=CCNc1nc(NCCN2CCOCC2)nc(N2CCOCC2)n1	18.6
CCOC(=O)c1ccc(N2C(=O)CC(N3CCN(C(=O)c4ccccc4)CC3)C2=O)cc1 (centres unmarked)	-1.74
Cn1cc(C(=O)N/N=C/c2ccc3c(c2)OCO3)c2ccccc21	-10.2
Oc1ccccc1C1N=C(c2ccccc2)NC(c2ccccc2)=N1	-7.87
O=c1c2ccccc2n(CC(O)CN2CCCCC2)c2ccccc12 (centres unmarked)	-32
O=C(NCc1cccc(Cl)c1)c1ccc(S(=O)(=O)Nc2cccc(C(F)(F)F)c2)cc1	15.4
